{
  "source": "PubChem BioAssay (Tox21)",
  "key": {"[1]": {"assay": "cAMP Responsive Elements (CRE) small molecule antagonists, cell-based qHTS assay: qHTS cell viability counter screen (AID 2060913); also: nearly all actives have a fitted effect of over 40% in size", "how_it_was_run": "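Cytotoxicity read in the same wells as the CRE-bla HEK293T antagonist assay: after 3 h compound with 0.25 uM NKH477 final and 2 h beta-lactamase substrate, CellTiter-Glo luminescence measured.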"}, "[2]": {"assay": "cAMP Responsive Elements (CRE) small molecule agonists, cell-based qHTS assay: qHTS cell viability counter screen (AID 2060914); also: nearly all actives have a fitted effect of over 50% in size", "how_it_was_run": "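Cytotoxicity was measured as ATP luminescence (CellTiter-Glo, 30 min at room temperature) in the same wells as the CRE-bla FRET read-out. HEK293T CRE-bla cells had 3 h compound exposure at 37C/5% CO2.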"}},
  "note": "Where “and” joins values, the source holds several entries; their conditions need not be identical. Equal values may be shown once. Inconclusive means that the source gave no clear call. Such entries were picked first, then a sample of the others. A potency beside an inconclusive call is a rough fit, not a confirmed value. Where a structure was tested more than once in an assay, its records may differ in their call. Calls of active or inactive are those of the source. Calls follow the shape of the dose curve; as a rule, active = well fitted cell-killing curve with a large enough effect in the repeat runs; inconclusive = weak or mixed curves, or effect the other way; inactive = flat fitted curve, though single readings scatter. Potency is read from the fitted curve at half-maximal effect; tags tell the direction and shape of the fitted curve.",
  "data": [
    {"smiles": "NC(=O)c1nc(-c2cccc(-c3cc(F)ccc3OCC(F)(F)C(F)(F)F)c2)n[nH]1", "values": [
      {"measurement": "Potency", "setting": "[1]", "value": "inconclusive: 68.6 µM [cytotoxic, single point]"},
      {"measurement": "Potency", "setting": "[2]", "value": "inconclusive: 68.6 µM [cytotoxic, single point]"}
    ]},
    {"smiles": "Cc1cc(O)c(C(C)(C)C)cc1Sc1cc(C(C)(C)C)c(O)cc1C", "values": [
      {"measurement": "Potency", "setting": "[1]", "value": "active: 21.6 µM"},
      {"measurement": "Potency", "setting": "[2]", "value": "active: 38.5 µM"}
    ]},
    {"smiles": "CCOc1nc2cccc(C(=O)OC(C)OC(=O)OC3CCCCC3)c2n1Cc1ccc(-c2ccccc2-c2nn[nH]n2)cc1", "note": "(centres undefined)", "values": [
      {"measurement": "Potency", "setting": "[1]", "value": "active: 48.5 µM"},
      {"measurement": "Potency", "setting": "[2]", "value": "inconclusive: 54.4 µM [cytotoxic, single point]"}
    ]},
    {"smiles": "CC(C)(C)CC(C)(C)c1ccc(O)c(Cc2ccc(Cl)cc2Cl)c1", "values": [
      {"measurement": "Potency", "setting": "[1]", "value": "inconclusive: 29.8 µM [cytotoxic, single point]"},
      {"measurement": "Potency", "setting": "[2]", "value": "active: 13.3 µM"}
    ]},
    {"smiles": "CCCc1c(OCCCOc2ccc(OCC(=O)O)cc2)ccc(C(C)=O)c1O", "values": [
      {"measurement": "Potency", "setting": "[1]", "value": "inconclusive: 61.1 µM [cytotoxic, partial curve, poor fit]"},
      {"measurement": "Potency", "setting": "[2]", "value": "inconclusive: 68.6 µM [cytotoxic, partial curve, poor fit]"}
    ]},
    {"smiles": "CC(=O)OC(OC(C)=O)c1ccc([N+](=O)[O-])o1", "values": [
      {"measurement": "Potency", "setting": "[1]", "value": "inconclusive: 69.8 µM [cytotoxic, single point]"},
      {"measurement": "Potency", "setting": "[2]", "value": "inconclusive: 69.8 µM [cytotoxic, single point]"}
    ]},
    {"smiles": "CCC(C)Nc1ccc(NC(C)CC)cc1", "note": "(centres undefined)", "values": [
      {"measurement": "Potency", "setting": "[1]", "value": "inconclusive: 31.2 µM [cytotoxic, partial curve]"},
      {"measurement": "Potency", "setting": "[2]", "value": "inconclusive: 55.5 µM [cytotoxic, partial curve, poor fit]"}
    ]},
    {"smiles": "CCCCCOC(=O)CCC", "values": [
      {"measurement": "Potency", "setting": "[1]", "value": "inactive"},
      {"measurement": "Potency", "setting": "[2]", "value": "inactive"}
    ]},
    {"smiles": "CC[C@H]1O[C@]2(CC[C@@H]1C)C[C@@H]1C[C@@H](C/C=C(\\C)C[C@@H](C)/C=C/C=C3\\CO[C@@H]4[C@H](O)C(C)=C[C@@H](C(=O)O1)[C@]34O)O2", "values": [
      {"measurement": "Potency", "setting": "[1]", "value": "active: 30.4 µM"},
      {"measurement": "Potency", "setting": "[2]", "value": "inconclusive: 34.1 µM [cytotoxic, partial curve]"}
    ]},
    {"smiles": "CC(=O)Oc1ccccc1C(=O)Nc1ncc([N+](=O)[O-])s1", "values": [
      {"measurement": "Potency", "setting": "[1]", "value": "inconclusive: 7.85 µM [cytotoxic, full curve] and active: 7.5 µM"},
      {"measurement": "Potency", "setting": "[2]", "value": "inconclusive: 12.4 µM [cytotoxic, full curve] and inconclusive: 9.44 µM [cytotoxic, partial curve]"}
    ]},
    {"smiles": "O=c1[nH]c2ccccc2c(=O)n1CCCl", "values": [
      {"measurement": "Potency", "setting": "[1]", "value": "inactive"},
      {"measurement": "Potency", "setting": "[2]", "value": "inactive"}
    ]},
    {"smiles": "CCCCCCCCCCCCCC[P+](CCCC)(CCCC)CCCC", "note": "(tested in a mixture with another compound)", "values": [
      {"measurement": "Potency", "setting": "[1]", "value": "active: 2.45 µM"},
      {"measurement": "Potency", "setting": "[2]", "value": "inconclusive: 2.45 µM [cytotoxic, single point]"}
    ]},
    {"smiles": "O=C(Nc1ncc([N+](=O)[O-])s1)c1cccs1", "values": [
      {"measurement": "Potency", "setting": "[1]", "value": "active: 21.1 µM"},
      {"measurement": "Potency", "setting": "[2]", "value": "active: 11.9 µM"}
    ]},
    {"smiles": "C=CCN(CC=C)CC=C", "values": [
      {"measurement": "Potency", "setting": "[1]", "value": "inactive"},
      {"measurement": "Potency", "setting": "[2]", "value": "inconclusive: 27.3 µM [cytotoxic, single point]"}
    ]},
    {"smiles": "OCCN1CCN(CC/C=C2/c3ccccc3Sc3ccc(C(F)(F)F)cc32)CC1", "values": [
      {"measurement": "Potency", "setting": "[1]", "value": "inconclusive: 33.5 µM [cytotoxic]"},
      {"measurement": "Potency", "setting": "[2]", "value": "inconclusive: 2.98 µM [cytotoxic, single point]"}
    ]},
    {"smiles": "NC(=O)N1C(=O)C(C(=O)c2cc(Cl)cs2)c2cc(F)c(Cl)cc21", "note": "(centres undefined)", "values": [
      {"measurement": "Potency", "setting": "[1]", "value": "inconclusive: 61.1 µM [cytotoxic, single point]"},
      {"measurement": "Potency", "setting": "[2]", "value": "inconclusive: 68.6 µM [cytotoxic, single point]"}
    ]},
    {"smiles": "Cc1ccc(S(=O)(=O)C(I)I)cc1", "values": [
      {"measurement": "Potency", "setting": "[1]", "value": "active: 61.1 µM"},
      {"measurement": "Potency", "setting": "[2]", "value": "inconclusive: 68.6 µM [cytotoxic, single point]"}
    ]},
    {"smiles": "C=C1C(C)(C)[C@@]2(Cl)C(Cl)[C@]1(Cl)C(Cl)(Cl)C2(Cl)Cl", "note": "(some centres undefined)", "values": [
      {"measurement": "Potency", "setting": "[1]", "value": "inconclusive: 53.5 µM [cytotoxic, partial curve, poor fit]"},
      {"measurement": "Potency", "setting": "[2]", "value": "inconclusive: 60 µM [cytotoxic]"}
    ]},
    {"smiles": "Oc1c(Cl)cc(Cl)c(Cl)c1Cc1c(O)c(Cl)cc(Cl)c1Cl", "values": [
      {"measurement": "Potency", "setting": "[1]", "value": "inconclusive: 8.61 µM [cytotoxic, full curve, poor fit]"},
      {"measurement": "Potency", "setting": "[2]", "value": "inconclusive: 6.09 µM [cytotoxic, partial curve] and inconclusive: 61.1 µM [cytotoxic, single point] and inconclusive: 3.35 µM [cytotoxic, full curve, poor fit]"}
    ]},
    {"smiles": "CN1CCC[C@@H]1CCO[C@](C)(c1ccccc1)c1ccc(Cl)cc1", "values": [
      {"measurement": "Potency", "setting": "[1]", "value": "inconclusive: 29.8 µM [cytotoxic, partial curve, poor fit]"},
      {"measurement": "Potency", "setting": "[2]", "value": "inconclusive: 16.8 µM [cytotoxic, single point]"}
    ]},
    {"smiles": "Cc1cccc(Oc2ccccc2)c1", "values": [
      {"measurement": "Potency", "setting": "[1]", "value": "inconclusive: 66.8 µM [cytotoxic, single point]"},
      {"measurement": "Potency", "setting": "[2]", "value": "inconclusive: 66.8 µM [cytotoxic, single point]"}
    ]},
    {"smiles": "CN(C)c1ccc(C=O)cc1", "values": [
      {"measurement": "Potency", "setting": "[1]", "value": "inactive"},
      {"measurement": "Potency", "setting": "[2]", "value": "inactive"}
    ]},
    {"smiles": "O=C(O)c1ccccc1", "values": [
      {"measurement": "Potency", "setting": "[1]", "value": "inconclusive: 28.7 µM [cytotoxic, partial curve, poor fit]"},
      {"measurement": "Potency", "setting": "[2]", "value": "inconclusive: 28.7 µM [cytotoxic, partial curve, poor fit]"}
    ]},
    {"smiles": "CN(Cc1cnc2nc(N)nc(N)c2n1)c1ccc(C(=O)N[C@@H](CCC(=O)O)C(=O)O)cc1", "values": [
      {"measurement": "Potency", "setting": "[1]", "value": "inconclusive: 344 nM [cytotoxic, full curve] and inconclusive: 266 nM [cytotoxic]"},
      {"measurement": "Potency", "setting": "[2]", "value": "inconclusive: 217 nM [cytotoxic, full curve] and inconclusive: 168 nM [cytotoxic, full curve]"}
    ]},
    {"smiles": "C[C@@]12C(=O)OC(=O)[C@]1(C)C1CCC2O1", "values": [
      {"measurement": "Potency", "setting": "[1]", "value": "inconclusive: 13.3 µM [rising, partial curve]"},
      {"measurement": "Potency", "setting": "[2]", "value": "inconclusive: 0.596 µM [rising, full curve, poor fit]"}
    ]},
    {"smiles": "CCCCCC(=O)O", "values": [
      {"measurement": "Potency", "setting": "[1]", "value": "inactive"},
      {"measurement": "Potency", "setting": "[2]", "value": "inconclusive: 68.7 µM [cytotoxic, single point]"}
    ]},
    {"smiles": "CCOC(=O)O[C@H](C)OC(=O)c1ccc2c(c1)cc(C(=O)NC1CCN(C(C)C)CC1)n2Cc1cc(-c2ccc(Cl)s2)on1", "values": [
      {"measurement": "Potency", "setting": "[1]", "value": "active: 57.1 µM"},
      {"measurement": "Potency", "setting": "[2]", "value": "inconclusive: 64.1 µM [cytotoxic, single point]"}
    ]}
  ]
}
